# From the supplement of paper PMC3334620
# Whole data set: some 33,000 sequences, median “E-score (-0.5 to 0.5)” near -0.032, cut for the highest 2% near 0.36. The list shows a part of the results.
# Target: T1, Sko1 (UniProt Q02100)
# T1 sequence: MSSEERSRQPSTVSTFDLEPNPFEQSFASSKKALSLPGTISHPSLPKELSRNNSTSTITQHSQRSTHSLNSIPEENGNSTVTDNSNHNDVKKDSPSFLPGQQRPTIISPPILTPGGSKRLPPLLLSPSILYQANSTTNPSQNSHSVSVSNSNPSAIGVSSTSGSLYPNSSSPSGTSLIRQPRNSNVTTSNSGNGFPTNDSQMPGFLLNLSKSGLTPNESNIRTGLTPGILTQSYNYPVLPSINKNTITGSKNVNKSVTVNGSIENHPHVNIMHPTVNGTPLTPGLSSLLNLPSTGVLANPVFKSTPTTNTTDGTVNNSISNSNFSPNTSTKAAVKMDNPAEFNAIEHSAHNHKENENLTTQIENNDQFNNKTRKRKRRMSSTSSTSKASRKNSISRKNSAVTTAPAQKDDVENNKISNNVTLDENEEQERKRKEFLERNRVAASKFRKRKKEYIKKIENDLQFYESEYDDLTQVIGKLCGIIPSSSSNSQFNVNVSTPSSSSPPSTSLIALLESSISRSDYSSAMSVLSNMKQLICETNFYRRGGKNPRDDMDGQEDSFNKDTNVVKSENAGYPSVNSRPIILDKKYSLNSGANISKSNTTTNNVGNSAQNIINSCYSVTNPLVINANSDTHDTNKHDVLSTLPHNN
# Experiment: PBM E-score (8-mer binding enrichment) (E-score (-0.5 to 0.5)); higher = stronger / more preferred TF binding; most listed sequences are background and not binding sites
# Details: protein concentration: 200 nM; construct: GST-full length
# Method: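 Universal 'all 10-mer' protein binding microarrays (Agilent AMADID 015681) probed with GST-tagged S. cerevisiae TFs (full-length or DBD) made by in vitro transcription/translation (PURExpress), about 100-200 nM. Bound TF was detected with fluorescent anti-GST. Each ungapped 8-mer (which stands for itself and its reverse complement) is scored by the PBM enrichment score (E-score), a modified Wilcoxon-Mann-Whitney statistic from -0.5 to +0.5, computed with the Universal PBM Analysis Suite. Scale: above 0.35 generally sequence-specific binding.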
row,Sequence,PBM E-score
1,ATCGCCGG,-0.118
2,ACCCCTCG,-0.159
3,GCTCCACC,-0.282
4,AGCTCAAC,-0.147
5,AGTGACTG,-0.0295
6,AGTGCTGC,0.00774
7,CAGTTATC,-0.163
8,AAACTCTA,0.0457
9,CAGGTTAA,-0.057
10,CTATGAGA,-0.111
11,AAAATCTA,0.123
12,ATGATGGC,0.0223
13,AGCTACAA,-0.122
14,ACGAGAGA,-0.0589
15,AAAATAGA,0.104
16,ATTCAGTC,0.0357
17,AAATCACA,0.0912
18,AGCGGCCA,-0.209
19,CGATCCCC,-0.258
20,GATGCTAC,0.0613
21,CCCGTGCC,-0.178
22,GAGACTCC,-0.111
23,CGCTGTCC,-0.0275
24,CAAAAGTG,0.0902
25,AGGAGAGA,-0.0928

row,Sequence,PBM E-score
1,GTCAAGTA,0.0739
2,CGAAAGTC,0.11
3,AAAGAGTG,-0.0846
4,CACTGCGC,-0.0359
5,GTCCACTA,-0.0871
6,AGTAAAAG,0.181
7,AACCCAGG,-0.122
8,ATTGCGAA,0.175
9,AGTCGGTA,-0.174
10,ACTCTACC,-0.137
11,TGGAAGAA,0.0802
12,ATCATGCC,0.131
13,GGTGGTAA,0.0085
14,ATAATTAG,0.202
15,ACCATGTG,0.0252
16,TCCCATCA,-0.0921
17,AAAGCGTC,0.0125
18,GCGTGGAA,-0.0652
19,GTACAAAC,0.12
20,TATGGTAA,0.11
21,GGCATGTA,0.0852
22,GTAAGAAA,0.0895
23,CATCCACC,-0.166
24,CCAGACCG,-0.276
25,AACGAGTC,-0.0563

row,Sequence,PBM E-score
1,AGCATTGG,-0.217
2,AGCCTCGC,-0.154
3,CATAACCA,0.0546
4,GTGAGTCA,0.235
5,ATTAGTGA,0.042
6,AGCCCGGC,-0.272
7,AAAGTACT,-0.0356
8,CCCACAGC,-0.124
9,GCGGAATA,0.0622
10,GCATGAAC,-0.065
11,CGGCGTTC,-0.128
12,ATTGATAA,0.161
13,CCTAGTAG,-0.158
14,CCCGACGA,-0.112
15,CCTGGTAA,-0.124
16,ACCATCGT,-0.0577
17,CAGATGGG,-0.259
18,CAAGACGG,-0.218
19,ACCGAATA,0.161
20,GTCCCGGA,-0.143
21,CACCATGC,-0.219
22,AGCACAAA,0.0706
23,GAGTTTTA,0.0454
24,CCCCTTAA,-0.253
25,TCTCGGCA,-0.169

row,Sequence,PBM E-score
1,ACACATAA,0.262
2,GCACGCAC,0.0723
3,TCACGCGA,0.237
4,AACGGGAG,-0.159
5,TAGACGGA,-0.0233
6,AAGCTGCT,-0.161
7,GCGGGACC,-0.308
8,GAGCTTTA,0.0316
9,CCTCGAGA,-0.0559
10,ACCTCACT,0.135
11,ACACGTAG,0.433
12,CGGTAGGC,-0.241
13,GTGGCTTA,-0.067
14,GAGGCTTA,-0.208
15,CGCAGTCC,-0.0221
16,CTTCCAAC,-0.199
17,CGTAGCAA,0.264
18,AGTGTACA,0.0231
19,AGGGGAGA,-0.372
20,TTTTAAAA,0.233
21,TAGTACGA,0.22
22,TATAGTAA,0.121
23,CCCCCCTC,-0.384
24,AAGCGCAT,-0.0546
25,CGAGTCGC,-0.243

row,Sequence,PBM E-score
1,ACCAATTA,0.205
2,GACAACAC,0.128
3,TCCCGCAA,-0.126
4,CGTGACGA,0.411
5,ACACTACA,0.167
6,ACGGAGGC,-0.228
7,GGAGTTGA,-0.104
8,GATCACGC,0.23
9,CTCCTAGC,-0.353
10,ACGAATAG,0.144
11,CCAGTAGG,-0.243
12,TATTACCA,0.227
13,ACTCTCCG,-0.127
14,ACCCACTG,-0.151
15,CAGTACCC,-0.133
16,ACCTAAAA,0.164
17,GGCGTTCA,-0.169
18,TATACAGA,0.164
19,CGCATACA,0.0477
20,GCGGTAGA,-0.241
21,ACTCTTAT,0.079
22,CATCGCAC,-0.065
23,TCAGGACA,0.104
24,CGCGTCTC,0.063
25,GACCGTTA,-0.144

row,Sequence,PBM E-score
1,TGCTCACA,0.106
2,AGTGTTTC,0.034
3,AGTTGAAC,0.0418
4,ATACTCGG,0.102
5,AAGAATAC,0.147
6,GACAATTA,0.124
7,ACGAGGCG,0.0199
8,CCGAGGAG,-0.276
9,CGGAGTAG,-0.274
10,AGATAGCT,-0.153
11,ACTGTGTC,-0.0725
12,AATTAGGG,-0.0351
13,ACGAACAA,0.218
14,CGGGGACG,-0.127
15,AGTGTAAC,-0.0269
16,GCCACACA,-0.28
17,CACGCACA,0.222
18,GAAGAATA,0.0308
19,AGGGAGCC,-0.337
20,ACAATCAC,0.0792
21,CAATGGTA,0.0536
22,CTGGCTAA,-0.224
23,GCAGGCGC,-0.128
24,GCGCACGC,-0.121
25,ATTCGAAC,0.105

row,Sequence,PBM E-score
1,GACTCTGA,-0.104
2,GTCGGGGA,-0.0244
3,TGGATGAA,0.0106
4,ACTTACGC,0.302
5,CGCCCCCG,-0.295
6,AAGGCCCC,-0.279
7,GCGAGGCC,-0.337
8,ACCAACCG,0.00076
9,GACCAGAA,-0.0517
10,GGGCCTTA,-0.0938
11,GCCGGGCC,-0.296
12,ACGAATAA,0.3
13,AGCCCCCA,-0.286
14,TCCTTGCA,-0.292
15,AGGTCTCG,-0.12
16,GTTTCGAA,-0.0187
17,GCAGAACA,-0.0426
18,GTACGAAC,0.284
19,AGATATCC,-0.00522
20,AAATGATT,0.263
21,ATGTCAGA,0.181
22,ACGATCGC,0.103
